# Source: PubChem BioAssay AID588342 (National Center for Advancing Translational Sciences (NCATS), 2011)
# In all, about 360,000 compounds went through this assay and about 25,000 (6.9%) were called active. Inconclusive means that the source gave no clear call. Such entries were picked first, then a sample of the others. The call rests on the fitted dose curve; in most records, active means well fitted inhibition curve with a large enough effect; inconclusive means small, poorly fitted or top-dose-only effect; inactive means flat fitted curve, though single readings scatter. Where the call is inconclusive, the potency comes from a doubtful curve fit.
# Target: Luciferin 4-monooxygenase (Photinus pyralis) (UniProt P08659)
# UniProt P08659, sequence (P08659 whole entry, looked up): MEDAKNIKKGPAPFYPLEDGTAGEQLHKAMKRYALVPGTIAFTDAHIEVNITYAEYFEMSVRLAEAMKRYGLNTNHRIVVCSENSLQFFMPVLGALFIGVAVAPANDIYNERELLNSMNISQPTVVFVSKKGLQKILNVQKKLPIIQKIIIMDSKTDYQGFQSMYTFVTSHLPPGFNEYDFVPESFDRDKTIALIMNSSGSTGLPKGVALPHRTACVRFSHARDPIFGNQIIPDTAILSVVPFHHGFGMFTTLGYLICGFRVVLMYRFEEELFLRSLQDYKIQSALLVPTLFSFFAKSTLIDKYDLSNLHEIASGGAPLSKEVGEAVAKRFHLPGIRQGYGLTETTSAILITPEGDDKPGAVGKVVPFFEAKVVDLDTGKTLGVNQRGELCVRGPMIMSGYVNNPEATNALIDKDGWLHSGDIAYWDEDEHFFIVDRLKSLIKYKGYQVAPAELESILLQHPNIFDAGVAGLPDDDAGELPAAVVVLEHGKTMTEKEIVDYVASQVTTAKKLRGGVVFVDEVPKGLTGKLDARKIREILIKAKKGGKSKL
# Assay: qHTS profiling assay for firefly luciferase inhibitor/activator using purifed enzyme and Km concentrations of substrates (counterscreen for miR-21 project); further: nearly all actives have a fitted effect of over 55% in size;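 on activity change, negative = inhibition: plate controls were vehicle for no effect and reference inhibitor for full effect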
# Settings: purified FLuc, luminescence inhibition; activity change, negative = inhibition: at 57.5 µM (top of the series)
# Summary of the method: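 Biochemical qHTS of compounds, final roughly 60 µM downward over six points, against 10 nM purified firefly luciferase using Km concentrations of substrates (10 uM D-luciferin, 10 uM ATP) in Tris acetate pH 7.5 buffer; luminescence output.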
# Potency means the concentration at half of the fitted maximal effect; tags describe the fitted curve by direction and shape.
SMILES,"activity change, negative = inhibition",Potency
Cc1nn(CC(=O)NC2CC2)c(=O)c2cc3ccccc3n12,inactive: -4.82%,
Fc1ccccc1N=C1Nc2cccc3cccc1c23,,"inconclusive: 26.9 µM [inhibitor, partial curve]"
CCOc1ccccc1Nc1nc(N)nc(CSc2nccc(C)n2)n1,inactive: -5.38%,
O=C(Nc1ccc(Cl)cc1)N1CCc2ccccc2C1,,"inconclusive: 30.1 µM [inhibitor, partial curve, poor fit]"
COc1ccc(Cl)cc1NC(=O)Cn1ccn(Cc2ccc(C)cc2)c(=O)c1=O,,"inconclusive: 26.9 µM [inhibitor, partial curve]"
O=C(c1cc2c(=O)oc3ccccc3c2s1)N1CCN(c2cccc(Cl)c2)CC1,inactive: -2.22%,
CC(=O)c1cccc(Nc2nc(N3CCOCC3)nc(N3CCOCC3)n2)c1,inactive: -0.606%,
Cn1c(-c2nnn(-c3ccc(F)cc3)n2)cc2ccccc21,,active: 1.35 µM
CC(C)(C)C(=O)COC(=O)c1cccc(NC(=O)c2ccco2)c1,,"inconclusive: 23.9 µM [inhibitor, partial curve, poor fit]"
CC(C)(CO)NC(=O)CCCOc1ccc(Cl)cc1Cl,,"inconclusive: 16.9 µM [inhibitor, partial curve]"
O=C(COC(=O)c1cccc(Cl)c1)NC1CCCCCCC1,,"inconclusive: 15.1 µM [inhibitor, partial curve]"
CCN(C(=O)COC(=O)c1cc(-c2ccccc2)nc2ccc(Br)cc12)C1CCS(=O)(=O)C1 (stereo unspecified),,"inconclusive: 26.9 µM [inhibitor, single point]"
Cc1c(C(=O)NC2CCS(=O)(=O)C2)oc2ccccc12 (stereo unspecified),inactive: 2.8%,
COC(=O)c1ccc(Nc2ncnc3c2nc2n3CCCC2)cc1,,"inconclusive: 23.9 µM [inhibitor, partial curve]"
COc1ccc(/C=C/C(=O)Nc2ccccc2C)cc1S(=O)(=O)N1CCOCC1,,"inconclusive: 23.9 µM [inhibitor, single point]"
CCOc1ccc(C(=O)NCCn2cc(SCC(=O)NCCc3ccc(OC)c(OC)c3)c3ccccc32)cc1,,"inconclusive: 12 µM [inhibitor, partial curve]"
Cc1cccc(C(=O)NNC2=C(C(=O)C(F)(F)F)CCC2)c1O,,"inconclusive: 21.3 µM [inhibitor, single point]"
Cc1ccc(-c2csc(N(Cc3ccco3)C(=O)c3cccs3)n2)cc1,,"inconclusive: 23.9 µM [inhibitor, single point]"
COc1ccnc(Oc2ccc(C)cc2)c1C#N,,"inconclusive: 23.9 µM [inhibitor, partial curve]"
O=C(/C=C/c1ccc(OCCCF)cc1)Nc1ccnc(-c2cccnc2)n1,,"inconclusive: 1.69 µM [inhibitor, full curve]"
COc1ccccc1C(=O)Nc1ccc(-c2nnn(CC(=O)N3CCOCC3)n2)cc1,,"inconclusive: 30.1 µM [inhibitor, single point]"
COc1ccc(NC(=O)/C(C#N)=C/c2ccc(-c3ccccc3C(=O)O)o2)cc1,,active: 6.75 µM
CN(C)/C=C/C(=O)c1ccc(Br)s1,,"inconclusive: 30.1 µM [inhibitor, partial curve, poor fit]"

SMILES,"activity change, negative = inhibition",Potency
COc1cc(C2NC(=S)NC(C)=C2C(=O)Nc2ccc(C)cc2)ccc1O (stereo unspecified),,"inconclusive: 3.38 µM [inhibitor, full curve]"
CCOC(=O)c1c(C)[nH]c(N=Nc2ccccc2C)c1C,,active: 15.1 µM
Cc1c(Cl)ccc2sc(N3CCN(C(=O)c4ccco4)CC3)nc12,,"inconclusive: 37.9 µM [inhibitor, single point]"
COc1ccc(NC(=O)Cn2cnc3sc(C)c(S(=O)(=O)N4CCN(C)CC4)c3c2=O)cc1OC,,inactive
Cc1ccc(OCc2ccc(C(=O)NCc3cccnc3)cc2)cc1C,,"inconclusive: 26.9 µM [inhibitor, single point]"
CCOc1ccc(CNC(=O)c2cc3oc4ccccc4c3n2C)cc1,,inactive
S=c1[nH]nc(CSCCOc2ccc(Cl)cc2Cl)o1,,active: 21.3 µM
O=C(O)c1ccc(CSc2nc3ccccc3o2)cc1,,active: 19 µM
CN(Cc1nc(-c2cccc(Cl)c2)no1)C1CCOCC1,,"inconclusive: 23.9 µM [inhibitor, partial curve]"
ClCC1CSC(=NC23CC4CC(CC(C4)C2)C3)O1 (stereo unspecified),inactive: -0.523%,
O=[N+]([O-])c1ccc(-c2ncc(-c3ccc(Br)cc3)o2)cc1,,"inconclusive: 6.75 µM [inhibitor, full curve]"
CC1CCN(C(=O)COC(=O)c2cc3ccccc3cc2O)CC1,,"inconclusive: 19 µM [inhibitor, partial curve]"
COCC(C)N=C1NN=C(c2ccc(NC(C)=O)cc2)CS1 (stereo unspecified),,"inconclusive: 21.3 µM [inhibitor, single point]"
Cc1nc2ccccc2c(=O)n1/N=C/c1ccccc1,,"inconclusive: 37.9 µM [inhibitor, partial curve, poor fit]"
CC(C)C(=O)OC1=CN(Cc2ccccc2)S(=O)(=O)c2ccccc21,inactive: -3.15%,
Cc1cccc(C)c1Nc1c(-c2ccc(Cl)s2)nc2ncccn12,inactive: -9.57%,
CCOc1ccc2c(c1)C(C)=CC(C)(C)N2C(=O)Nc1ccccc1,,"inconclusive: 21.3 µM [inhibitor, partial curve, poor fit]"
COc1ccc2oc(C(=O)Nc3ccc(S(=O)(=O)N(C)C4CCN(C)CC4)cc3)c(C)c2c1,,"inconclusive: 26.9 µM [inhibitor, partial curve, poor fit]"
CNc1c(NS(=O)(=O)c2ccc(CC(C)C)cc2)c(=O)oc2ccccc12,inactive: 1.12%,
COCC1CCCCN1C(=O)c1ccc(OC)c(OC2CCN(C(C)C)CC2)c1 (stereo unspecified),,"inconclusive: 26.9 µM [inhibitor, single point]"
O=C(NCc1ccc(F)cc1)c1cc2c(s1)CCCC2,,"inconclusive: 26.9 µM [inhibitor, partial curve]"
CCC(C)Sc1ccc(-c2nc3cnccn3c2NC2CCCCC2)cc1 (stereo unspecified),,"inconclusive: 37.9 µM [inhibitor, single point]"
CSC1=C(C#N)C(c2sccc2C)CC(=O)N1 (stereo unspecified),,"inconclusive: 37.9 µM [inhibitor, partial curve, poor fit]"
